Test results from ChEMBL document CHEMBL4888484, “Replenishing the malaria drug discovery pipeline: Screening and hit evaluation of the MMV Hit Generation Library 1 (HGL1) against asexual blood stage Plasmodium falciparum ,using a nano luciferase reporter read-out” (2022).
About 540 (0.36%) of roughly 150,000 compounds showed an effect of 50% or more. The list shows a part of the results.

System: Plasmodium falciparum
Test: Primary screen in NF54 nanoGlo assay, in single point, at 2uM, 72h; a lower Z score goes with more inhibition
Type: functional, Erythrocyte
Conditions: timepoint 72 hour

Compared with CCn1nc(C)cc1-c1cnc(C2CCOCC2)o1, O=C(NCc1nc(C2CCOCC2)no1)c1ccc(Br)o1 is higher in “% Inhibition” value: -14% for the first, -6% for the second.

Going from O=C(Nc1ccnn1Cc1ccc(Cl)cc1Cl)c1csc(-c2ccco2)n1 to COc1ccccc1NC(=O)c1csc(-c2ccc(C)n2C)n1, the “% Inhibition” value rises from -19% to -7%.

Going from COc1ccc2[nH]nc(CC(=O)N(C)C)c2c1 to COc1cc(Cc2cc(-c3ccccc3)n[nH]c2=O)cc2c1OCCO2, the “% Inhibition” value rises from -34% to -11%.

Going from CCN(C(=O)[C@@H]1CCCCn2nnnc21)C1CCCCC1 to O=C(C1CCC1)N(Cc1ccncc1)C1CC1, the “% Inhibition” value rises from 1% to 7%.

Going from C[C@@H](CNC(=O)COC1CCCCC1)N1CCN(C)CC1 to COCCn1nnnc1[C@]1(N2CCOCC2)CCCN(C(=O)Nc2ccc(C)cc2C)C1, the “% Inhibition” value rises from -5% to 1%.

First: Cc1cc(C)nc(NC(=O)c2sc(CC3CC3)nc2C)n1
Second: Cc1ccc(C)c(OCCc2nnc(NC(=O)[C@H]3CCCN(C)C3)s2)c1
The “% Inhibition” value of the first is lower: -31% for the first, -10% for the second.

Compared with Cn1c(C2CC2)nnc1N1CCc2cc(F)ccc2C1, CC1(C)CCc2onc(C(=O)N3CCC(c4nnc5n4CCNC5)CC3)c2C1 is higher in “% Inhibition” value: -17% for the first, -4% for the second.

Compared with CC(=O)N[C@@H](CC(C)C)c1nc(-c2ccc(Br)o2)no1, Cc1nc(N(C)Cc2nccn2C)ccc1C#N is higher in “% Inhibition” value: -4% for the first, 2% for the second.

Compared with CC(C)c1nc(CN2CCC[C@@](CO)(CC3CC3)C2)co1, Cc1nc(CN2CCC[C@H]2c2cnn(C)c2)oc1C is lower in “% Inhibition” value: -3% for the first, -13% for the second.

Compared with CC1CCN(S(=O)(=O)c2cccn(CC#N)c2=O)CC1, CC1(C)CC(=O)c2cnc3c(C(=O)N4CCC(Cc5ccccc5)CC4)cnn3c2C1 is higher in “% Inhibition” value: -7% for the first, -1% for the second.

Compared with O=C(CN(CC(O)c1ccccc1)C1CC1)NCC1CCCO1 (stereo unspecified), C[C@@H](CN1CC2(CCN(CCOCCO)CC2)OC1=O)c1ccccc1 is higher in “% Inhibition” value: -8% for the first, 15% for the second.

Going from COc1c(C)cnc(Cn2ccn3nc(-c4ccccc4)cc3c2=O)c1C to Cc1cc([C@]2(C)NC(=O)N(Cc3nc4ccccc4n3C(F)F)C2=O)c(C)o1, the “% Inhibition” value rises from -3% to 11%.

First: C[C@H](NC(=O)c1csc(-c2cccs2)n1)C1CC1
Second: Cc1nc(CCNc2ccc(C)c(F)c2)cs1
The “% Inhibition” value of the first is higher: -4% for the first, -10% for the second.

First: Cc1ccc(N2C[C@@H](C(=O)N3CCS(=O)(=O)CC3)CC2=O)cc1
Second: CN1C(=O)C2(CCN(C(=O)c3ccc(F)c(F)c3)CC2)c2ccccc21
The “% Inhibition” value of the first is higher: -12% for the first, -15% for the second.

Compared with CCc1nncn1CCN[C@@H](C)c1ccc(-n2cnnn2)cc1, Cn1nncc1C=Cc1cc(C(=O)O)nc(-c2ccc(Cl)cc2)n1 is higher in “% Inhibition” value: -5% for the first, -1% for the second.

Going from Cc1[nH]c2ccccc2c1CN1CCC(CCC(=O)NCc2ccc(F)cc2)CC1 to CCN1CCN(Cc2cccn2-c2nnc(N3CCN(Cc4ccccc4)CC3)s2)CC1, the “% Inhibition” value falls from 5% to 4%.

Compared with COc1ccccc1S(=O)(=O)N1CC(c2ccccc2)C(c2nc(C)no2)C1 (stereo unspecified), O=C(N[C@@H](CN1C(=O)COC1=O)c1ccccc1)c1ccc2ncsc2c1 is lower in “% Inhibition” value: 3% for the first, -9% for the second.

Going from c1cc(CNc2cc(-c3ccc(Cn4ccnc4)cc3)c3cc[nH]c3n2)ccn1 to Cc1[nH]c(=O)[nH]c(=O)c1-c1ccc(-c2ccn[nH]2)cc1, the “% Inhibition” value falls from 0% to -10%.

First: CC(=O)c1ccc(N2CCN(C(=O)c3noc(-c4ccc[nH]c4=O)n3)CC2)cc1
Second: Cn1cc(C(=O)N[C@H](c2ccccn2)C(F)(F)F)ccc1=O
The “% Inhibition” value of the first is lower: -22% for the first, -3% for the second.

Going from CCN1C(=O)CO[C@H](C(=O)NC23CCC(CC2)CC3)[C@H]1c1ccnn1C to Cc1nn(C)c2nc(-c3ccccn3)nc(N3CC(N4CCCC[C@@H]4C)C3)c12, the “% Inhibition” value falls from 2% to -1%.

COc1cccc(CNc2cccc(OCC(F)F)n2)n1 and Cc1cc(OCC2CCN(C(=O)CCC(F)(F)F)CC2)ncn1 are the same in “% Inhibition” value: -5% for the first, -5% for the second.

Cc1cc(=O)[nH]c(-n2[nH]c(C)c(CCO)c2=O)n1 was tested, and the “% Inhibition” value was -2%.

Going from CCn1nc(C)cc1-c1cnc(C2CCOCC2)o1 to O=C(NCc1nc(C2CCOCC2)no1)c1ccc(Br)o1, the Z score falls from 2.53 to 1.07.

First: O=C(Nc1ccnn1Cc1ccc(Cl)cc1Cl)c1csc(-c2ccco2)n1
Second: COc1ccccc1NC(=O)c1csc(-c2ccc(C)n2C)n1
The Z score of the first is higher: 3.63 for the first, 0.82 for the second.

Going from COc1ccc2[nH]nc(CC(=O)N(C)C)c2c1 to COc1cc(Cc2cc(-c3ccccc3)n[nH]c2=O)cc2c1OCCO2, the Z score falls from 3.95 to 1.52.

First: CCN(C(=O)[C@@H]1CCCCn2nnnc21)C1CCCCC1
Second: O=C(C1CCC1)N(Cc1ccncc1)C1CC1
The Z score of the first is higher: -0.12 for the first, -0.96 for the second.

Compared with C[C@@H](CNC(=O)COC1CCCCC1)N1CCN(C)CC1, COCCn1nnnc1[C@]1(N2CCOCC2)CCCN(C(=O)Nc2ccc(C)cc2C)C1 is lower in Z score: 0.48 for the first, -0.12 for the second.

First: Cc1cc(C)nc(NC(=O)c2sc(CC3CC3)nc2C)n1
Second: Cc1ccc(C)c(OCCc2nnc(NC(=O)[C@H]3CCCN(C)C3)s2)c1
The Z score of the first is higher: 3.69 for the first, 1.83 for the second.

Going from Cn1c(C2CC2)nnc1N1CCc2cc(F)ccc2C1 to CC1(C)CCc2onc(C(=O)N3CCC(c4nnc5n4CCNC5)CC3)c2C1, the Z score falls from 3.22 to 0.45.

Going from CC(=O)N[C@@H](CC(C)C)c1nc(-c2ccc(Br)o2)no1 to Cc1nc(N(C)Cc2nccn2C)ccc1C#N, the Z score falls from 0.55 to -0.36.

Going from CC(C)c1nc(CN2CCC[C@@](CO)(CC3CC3)C2)co1 to Cc1nc(CN2CCC[C@H]2c2cnn(C)c2)oc1C, the Z score rises from 0.27 to 1.71.

Going from CC1CCN(S(=O)(=O)c2cccn(CC#N)c2=O)CC1 to CC1(C)CC(=O)c2cnc3c(C(=O)N4CCC(Cc5ccccc5)CC4)cnn3c2C1, the Z score falls from 1 to 0.15.

Compared with O=C(CN(CC(O)c1ccccc1)C1CC1)NCC1CCCO1 (stereo unspecified), C[C@@H](CN1CC2(CCN(CCOCCO)CC2)OC1=O)c1ccccc1 is lower in Z score: 1.16 for the first, -1.64 for the second.

Compared with COc1c(C)cnc(Cn2ccn3nc(-c4ccccc4)cc3c2=O)c1C, Cc1cc([C@]2(C)NC(=O)N(Cc3nc4ccccc4n3C(F)F)C2=O)c(C)o1 is lower in Z score: 0.36 for the first, -1.72 for the second.

Compared with C[C@H](NC(=O)c1csc(-c2cccs2)n1)C1CC1, Cc1nc(CCNc2ccc(C)c(F)c2)cs1 is higher in Z score: 0.65 for the first, 1.05 for the second.

Compared with Cc1ccc(N2C[C@@H](C(=O)N3CCS(=O)(=O)CC3)CC2=O)cc1, CN1C(=O)C2(CCN(C(=O)c3ccc(F)c(F)c3)CC2)c2ccccc21 is higher in Z score: 2.59 for the first, 2.9 for the second.

First: CCc1nncn1CCN[C@@H](C)c1ccc(-n2cnnn2)cc1
Second: Cn1nncc1C=Cc1cc(C(=O)O)nc(-c2ccc(Cl)cc2)n1
The Z score of the first is higher: 0.46 for the first, 0.2 for the second.

Compared with Cc1[nH]c2ccccc2c1CN1CCC(CCC(=O)NCc2ccc(F)cc2)CC1, CCN1CCN(Cc2cccn2-c2nnc(N3CCN(Cc4ccccc4)CC3)s2)CC1 is higher in Z score: -0.76 for the first, -0.41 for the second.

Compared with COc1ccccc1S(=O)(=O)N1CC(c2ccccc2)C(c2nc(C)no2)C1 (stereo unspecified), O=C(N[C@@H](CN1C(=O)COC1=O)c1ccccc1)c1ccc2ncsc2c1 is higher in Z score: -0.55 for the first, 1.41 for the second.

Compared with c1cc(CNc2cc(-c3ccc(Cn4ccnc4)cc3)c3cc[nH]c3n2)ccn1, Cc1[nH]c(=O)[nH]c(=O)c1-c1ccc(-c2ccn[nH]2)cc1 is higher in Z score: -0.05 for the first, 1.91 for the second.

Compared with CC(=O)c1ccc(N2CCN(C(=O)c3noc(-c4ccc[nH]c4=O)n3)CC2)cc1, Cn1cc(C(=O)N[C@H](c2ccccn2)C(F)(F)F)ccc1=O is lower in Z score: 1.98 for the first, 0.64 for the second.

Going from CCN1C(=O)CO[C@H](C(=O)NC23CCC(CC2)CC3)[C@H]1c1ccnn1C to Cc1nn(C)c2nc(-c3ccccn3)nc(N3CC(N4CCCC[C@@H]4C)C3)c12, the Z score rises from -0.34 to 0.24.

First: COc1cccc(CNc2cccc(OCC(F)F)n2)n1
Second: Cc1cc(OCC2CCN(C(=O)CCC(F)(F)F)CC2)ncn1
The Z score of the first is lower: 0.52 for the first, 0.97 for the second.

Cc1cc(=O)[nH]c(-n2[nH]c(C)c(CCO)c2=O)n1 was tested, and the Z score was 0.33.
